Some of the results follow. The energies were worked out here from pooled read counts, against the library average; single values are noisy.

For this experiment, the target named is T1, Pho4 (S. cerevisiae) (UniProt P07270).
T1 sequence: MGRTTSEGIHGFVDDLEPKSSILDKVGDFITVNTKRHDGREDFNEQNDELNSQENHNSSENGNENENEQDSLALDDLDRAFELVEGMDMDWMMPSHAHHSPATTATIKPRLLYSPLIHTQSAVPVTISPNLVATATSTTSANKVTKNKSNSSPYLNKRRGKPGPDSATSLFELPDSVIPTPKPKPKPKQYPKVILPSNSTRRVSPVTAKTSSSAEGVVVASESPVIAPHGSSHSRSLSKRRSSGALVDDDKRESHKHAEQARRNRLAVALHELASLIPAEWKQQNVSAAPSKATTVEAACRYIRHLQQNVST
As to the kind of experiment: relative binding free energy (BET-seq); higher = weaker binding. The note with it: reference: library average.
On to CAATTCACGTGGAGGT, for which the “relative binding free energy” value came to 0.25 kcal/mol.

Take TTAGGCACGTGGTGGC: the “relative binding free energy” value was -0.12 kcal/mol. Take TTGAACACGTGGCTAG: the “relative binding free energy” value was -0.02 kcal/mol. In the case of GGGGACACGTGGATCG, the “relative binding free energy” value was found to be 0.01 kcal/mol. On to CTAGCCACGTGGGGTG, for which the “relative binding free energy” value is -0.28 kcal/mol. Under GTAGACACGTGGTTAG stands -0.02 kcal/mol; under GTAGCCACGTGTTTGT, 0.08 kcal/mol; under AGTGGCACGTGGCAGA, -0.15 kcal/mol. Regarding GAGTGCACGTGGTTGA, the “relative binding free energy” value stood at 0.02 kcal/mol. As to GTCAGCACGTGCTGGG, the “relative binding free energy” value is 0.08 kcal/mol.

With TAAATCACGTGCTTGG, the “relative binding free energy” value was 0.1 kcal/mol. As for GGTGACACGTGGTTTG, the “relative binding free energy” value was found to be 0.07 kcal/mol. With TTGGGCACGTGCGTTC, the “relative binding free energy” value was -0.21 kcal/mol.

As for GCTAGCACGTGTGAGG, the “relative binding free energy” value was found to be 0.05 kcal/mol. Under GGAGTCACGTGTATTT stands 0.23 kcal/mol. Under GAGTGCACGTGGGGGC stands -0.01 kcal/mol. Under CAGTACACGTGGGAGG stands 0.01 kcal/mol; under TGCGTCACGTGATTAG, 0.31 kcal/mol.

As to GCTGTCACGTGGGGAT, the “relative binding free energy” value was 0.08 kcal/mol. For the sequence TAGGGCACGTGAAGTG, the “relative binding free energy” value worked out at 0.27 kcal/mol. On to AATTTCACGTGTGACG, for which the “relative binding free energy” value was found to be 0.3 kcal/mol.

Turning to TTAATCACGTGGTTTA, the “relative binding free energy” value was found to be 0.01 kcal/mol. GTATTCACGTGGTAGT: the “relative binding free energy” value is 0.15 kcal/mol. Under TGGTACACGTGAGCGG stands 0.44 kcal/mol. Take CTGAACACGTGTGATT: the “relative binding free energy” value is 0.24 kcal/mol. Turning to GTGATCACGTGTGCGA, the “relative binding free energy” value is 0.13 kcal/mol.

Consider TGTAGCACGTGATTGG, for which the “relative binding free energy” value turned out to be 0.03 kcal/mol. Take CGTCGCACGTGGGTTG: the “relative binding free energy” value is -0.31 kcal/mol. Take TTGGCCACGTGGAGAT: the “relative binding free energy” value is 0.09 kcal/mol. For the sequence TCAGTCACGTGAAGTG, the “relative binding free energy” value stood at 0.24 kcal/mol. For the sequence TAGTGCACGTGGGATT, the “relative binding free energy” value is -0.03 kcal/mol. The same measure for CGTATCACGTGGCGGT: -0.08 kcal/mol; for TGTGTCACGTGATTGT: 0.2 kcal/mol. With GTTTTCACGTGGGCAG, the “relative binding free energy” value was found to be 0.2 kcal/mol.

For the sequence TGTGTCACGTGTATGT, the “relative binding free energy” value came to 0.04 kcal/mol. As for TTTAGCACGTGTTTTT, the “relative binding free energy” value was -0.01 kcal/mol. Consider GCGGTCACGTGTCGGT, for which the “relative binding free energy” value was 0.15 kcal/mol. Consider CGTGGCACGTGCGTCG, for which the “relative binding free energy” value was -0.1 kcal/mol. For the sequence TTAAGCACGTGTGCAT, the “relative binding free energy” value is -0.03 kcal/mol. Turning to GGATGCACGTGTGGTA, the “relative binding free energy” value was 0.01 kcal/mol. For the sequence TGATACACGTGATTTA, the “relative binding free energy” value was 0.17 kcal/mol. AAGGTCACGTGTGTTG: the “relative binding free energy” value was 0.17 kcal/mol. For the sequence TATTTCACGTGTGTTC, the “relative binding free energy” value came out at 0.33 kcal/mol. TTGCTCACGTGGAGAT: the “relative binding free energy” value turned out to be 0.15 kcal/mol.

Take GTTGGCACGTGTAAGT: the “relative binding free energy” value is 0.06 kcal/mol. Take AGGCACACGTGGGTAG: the “relative binding free energy” value was -0.05 kcal/mol. The same measure for CTGGCCACGTGGTGGG: -0.13 kcal/mol; for TGGGTCACGTGGTTGG: 0.2 kcal/mol; for AGGGGCACGTGCGGTA: -0.22 kcal/mol.

With TCATTCACGTGGGTGA, the “relative binding free energy” value is 0.04 kcal/mol. Take ACTATCACGTGTTGGG: the “relative binding free energy” value amounted to 0.04 kcal/mol. Take GTTATCACGTGGGACA: the “relative binding free energy” value turned out to be 0.1 kcal/mol. For TAGCGCACGTGAGGTA, the “relative binding free energy” value was 0.22 kcal/mol. In the case of CATAGCACGTGTGGGG, the “relative binding free energy” value was -0.19 kcal/mol. With AGTATCACGTGCTTGG, the “relative binding free energy” value was 0.03 kcal/mol. Consider AGATGCACGTGGGCTT, for which the “relative binding free energy” value was -0.19 kcal/mol. For CAGTACACGTGAGTGG, the “relative binding free energy” value turned out to be 0.23 kcal/mol. Regarding GGAGGCACGTGCGGGG, the “relative binding free energy” value was -0.06 kcal/mol.

The values above are taken from the BET-seq Pho4 binding data (Le et al. 2018).
